Experiments:
RAW 264.7 cells [1] = assay: Particle uptake in macrophages, Nile red, flow cytometry; format: cell-based, Murine; settings: 50 μg/mL Nile red
Method: Freshly grown RAW 264.7 (˜7×10^4 cells per well), were plated in a 24-well plate and incubated for one day to promote cell adherence. After supernatant removal, the cells were exposed to either Nile red (50 μg/mL in DMEM) or Nile red loaded formulations at a final concentration equivalent to 50 μg/mL. Following 1 h and 4 h incubation, the cells were thoroughly rinsed (three times using sterile PBS) and collected from each well of plate. The cells were centrifuged at 600 g for 5 min and the subsequent cell pellets were resuspended in FACS buffer. The Nile red intensity inside cells was measured using Accuri C6 Plus flow-cytometer (BD Biosciences, Franklin Lakes, New Jersey, USA).

RAW 264.7 cells [2] = assay: Rifampicin internalisation within macrophages (HPLC of lysed cells); format: cell-based, Murine; settings: 1 h incubation
Method: Following this, the cells were washed 4 times to ensure the removal of extracellular particles and lysed for 15 minutes with DMSO at 37° C., 5% CO2. The lysed cells were then collected in an Eppendorf tube and centrifuged for 5 min at 600 g. The intracellular rifampicin uptake was evaluated by analysing the supernatant using described HPLC method.

Compound	fluorescence intensity compared to control group (no treatment) (RAW 264.7 cells [1])	rifampicin dose detected inside the macrophages (RAW 264.7 cells [2]) [%]
CCN(CC)c1ccc2nc3c4ccccc4c(=O)cc-3oc2c1 [Nile red solution, Nile red]	did not exhibit any significant difference	
CO[C@H]1/C=C/O[C@@]2(C)Oc3c(C)c(O)c4c(O)c(c(/C=N/N5CCN(C)CC5)c(O)c4c3C2=O)NC(=O)/C(C)=C\C=C\[C@H](C)[C@H](O)[C@@H](C)[C@@H](O)[C@@H](C)[C@H](OC(C)=O)[C@@H]1C [rifampicin]		16.5±3.26

— patent US20250360087A1, “COMPOSITIONS COMPRISING LIPID DROPLETS ENCAPSULATED WITHIN POLYSACCHARIDE WALLS AND USES THEREOF” (UNIVERSITY OF SOUTH AUSTRALIA, priority 2022, published 2025)
